Reference: the supplement of paper PMC4166925
± gives the standard deviation of the averaged measurements. Over roughly 33,000 sequences, “E-score (dimensionless, -0.5 to 0.5)” has its median near -0.049; the highest 2% begin near 0.37. The list shows a part of the results.

tested on: T1, PmTbr T-box DNA-binding domain (GST fusion); assay: PBM E-score of 8-mer (E-score (dimensionless, -0.5 to 0.5)); Tbr is Tbrain of the sea star Patiria miniata (Pm) or the sea urchin Strongylocentrotus purpuratus (Sp); higher = stronger binding preference; most listed sequences are background and not binding sites; details: the construct has about 5 more residues each side
T1 sequence: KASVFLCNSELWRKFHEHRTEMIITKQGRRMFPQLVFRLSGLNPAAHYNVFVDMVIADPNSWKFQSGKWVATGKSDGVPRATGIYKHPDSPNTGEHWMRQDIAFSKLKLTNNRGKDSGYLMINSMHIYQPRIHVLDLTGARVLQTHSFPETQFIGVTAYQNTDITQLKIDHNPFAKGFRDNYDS
In short: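 Primer extension turned Universal Agilent oligonucleotide arrays double-stranded. They were incubated with 200 nM protein in PBS (pH 7.5); the protein was a GST-fused Tbr T-box DNA-binding domain expressed in BL21 E. coli at 20 °C and purified on glutathione. Every ungapped 8-mer was scored from the scanned, quantified probe intensities, and the Universal PBM Analysis Suite gave each an enrichment E-score averaged over duplicate arrays.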

Sequence | PBM E-score of 8-mer
CTATTTAC | -0.0656 ± 0.063
ATTGGGCG | 0.004 ± 0.007
AATCACGC | 0.286 ± 0.013
GAGCTGAA | -0.0595 ± 0.027
ATATATTG | -0.0768 ± 0.17
CAATCCGC | -0.00975 ± 0.0096
CGAGAGAC | -0.1636 ± 0.001
CGTCTCAC | 0.3 ± 0.029
AATGCAAG | -0.255 ± 0.012
CGTAGGTC | -0.279 ± 0.027
GCGAGTGA | 0.2338 ± 0.0017
AACATCAA | -0.0297 ± 0.099
ACTAAGAT | 0.0982 ± 0.03
TGGTAAAA | 0.00946 ± 0.093
ACTTCTCC | -0.0311 ± 0.0014
ATAGAGGG | -0.131 ± 0.045
ATACCTAT | -0.0294 ± 0.018
CAAGCCTG | -0.0239 ± 0.075
GCGTTCAC | 0.131 ± 0.027
ATGTTGCC | -0.032 ± 0.029
ACTACAGT | -0.14 ± 0.065
TCATGTAA | -0.126 ± 0.019
AGCGGCCC | -0.224 ± 0.011
AAATGCGT | -0.027 ± 0.067
ATTTGTAC | -0.0401 ± 0.085

Sequence | PBM E-score of 8-mer
CATAGACA | -0.0439 ± 0.027
GAGTCTGA | -0.244 ± 0.015
CATTCCTC | -0.173 ± 0.013
AAGATTAA | -0.077 ± 0.069
GAAACCTA | 0.0176 ± 0.07
GACCCTTA | -0.0822 ± 0.0071
AAGCTACA | -0.218 ± 0.056
ATGCTTAA | -0.261 ± 0.029
CATCACGC | 0.247 ± 0.046
ATTAGGTC | -0.153 ± 0.013
AGCACTTA | 0.272 ± 0.0086
GTTGTTCA | 0.0173 ± 0.026
TAGTACTA | -0.0576 ± 0.053
ACCGCCGG | 0.0198 ± 0.11
GAATTAAA | -0.137 ± 0.11
CTACGTTA | -0.232 ± 0.004
GGTCTCAA | -0.093 ± 0.037
ATTATTAG | -0.0653 ± 0.033
CCCAACAA | 0.0135 ± 0.11
AGCATGCT | -0.0402 ± 0.018
CGACACAG | 0.1771 ± 0.00083
CCTAAACC | -0.0267 ± 0.04
CTAGATCC | -0.244 ± 0.068
GTCGTCAC | 0.3318 ± 0.0028
ACGGTGAA | -0.208 ± 0.055

Sequence | PBM E-score of 8-mer
GCCTGTGA | 0.107 ± 0.014
CAAACTTA | 0.0492 ± 0.088
ATTTTGGG | -0.18 ± 0.0029
CACATACA | 0.229 ± 0.011
CACCACGG | 0.176 ± 0.059
AAGCTTAA | -0.173 ± 0.054
GCTCTGCA | -0.0825 ± 0.061
AACTACCA | -0.113 ± 0.011
GGTCGTCA | 0.0911 ± 0.017
CTAAACCC | -0.0556 ± 0.0056
TTCTCAAA | -0.0529 ± 0.12
CCAGTTTC | -0.0634 ± 0.028
CACCCAGG | 0.237 ± 0.011
TCCAAGAA | -0.115 ± 0.065
CCACGGAG | -0.178 ± 0.036
AAGCTAAG | -0.14 ± 0.064
CAGGGTCC | 0.0802 ± 0.01
CAGATTAC | -0.101 ± 0.043
ACGATGTA | -0.149 ± 0.036
CGATGATA | -0.00192 ± 0.05
CATAGCTC | -0.231 ± 0.059
CGAGCGTA | -0.276 ± 0.045
ACAGTGGA | -0.0479 ± 0.036
AAAGATCG | -0.0344 ± 0.064
CGTCTCAG | -0.15 ± 0.0054

Sequence | PBM E-score of 8-mer
CTTAATAC | 0.0863 ± 0.013
ACCTCTCC | 0.0785 ± 0.026
GAAGGGAA | -0.0404 ± 0.0073
AACTCGAG | -0.00631 ± 0.0034
GAATTTGA | -0.119 ± 0.025
TAAGACTA | -0.217 ± 0.016
GAGAATCC | 0.0014 ± 0.086
CGGAGAAC | -0.132 ± 0.049
CAGGGAAG | -0.247 ± 0.0093
TACGCTCA | -0.092 ± 0.038
GCGTCCAA | -0.0381 ± 0.029
GTGATAAA | 0.339 ± 0.07
CTTCAATA | -0.203 ± 0.14
TGGCGAAA | 0.0871 ± 0.075
TAGCACAA | 0.177 ± 0.009
GTACAGTA | 0.0854 ± 0.013
AACAGTGA | 0.1 ± 0.0087
CAGAAAGG | -0.245 ± 0.016
TTACGCAA | -0.00426 ± 0.0092
AGTCACAG | 0.135 ± 0.054
CCCCCGCA | -0.247 ± 0.079
CTGTGTTC | 0.102 ± 0.027
AACGCATA | -0.0282 ± 0.0057
CAATACCC | -0.172 ± 0.013
TCCGAAGA | -0.368 ± 0.0082

Sequence | PBM E-score of 8-mer
CGATGGCA | 0.168 ± 0.081
CGCAATAG | 0.0322 ± 0.0079
ACCGACGG | -0.0988 ± 0.015
AATTGTAA | -0.204 ± 0.043
ACAGGGAA | -0.205 ± 0.015
AGCCCAGC | -0.155 ± 0.077
AGCTAATC | -0.00077 ± 0.0068
TAGCCAGA | -0.293 ± 0.014
GTCCACGA | -0.173 ± 0.066
ACGCTCGC | 0.122 ± 0.0073
AGAGTCTG | -0.329 ± 0.03
GGAGCTAC | -0.125 ± 0.022
GTACTCGA | -0.12 ± 0.059
GAGATCTA | -0.0254 ± 0.096
CATATGAA | -0.172 ± 0.081
TGTTACAA | 0.191 ± 0.035
GCCCACCA | -0.212 ± 0.02
CCCAAGCG | -0.096 ± 0.045
AACTTGTA | -0.0779 ± 0.15
CTTTGGTA | -0.0263 ± 0.029
ATTAACAC | 0.449 ± 0.0075
AGGAACGG | 0.0966 ± 0.02
CTTAAAGA | -0.108 ± 0.021
CATAACAG | -0.072 ± 0.021
TAGACGAA | -0.182 ± 0.015

Sequence | PBM E-score of 8-mer
GAGTGTCA | 0.436 ± 0.0041
AGAGTGCA | 0.0698 ± 0.0037
AAGAACCC | -0.192 ± 0.042
ACCATAAA | 0.0538 ± 0.038
CCCAATAC | -0.178 ± 0.025
GGAGTGTA | 0.0383 ± 0.0057
ATTTACCC | -0.00345 ± 0.037
AAATGAAG | -0.124 ± 0.053
ACAAACCA | -0.13 ± 0.032
AACGCGCA | -0.0545 ± 0.015
ACTGCTGA | 0.181 ± 0.035
AGAATAAG | -0.0436 ± 0.0079
CCTGTAGA | -0.104 ± 0.038
GCCATCTA | -0.0654 ± 0.0076
AGATCAAA | -0.189 ± 0.031
ATACCCTG | -0.154 ± 0.04
CTGAGTAA | -0.172 ± 0.0019
ATAATAAC | 0.077 ± 0.051
ACTCCACG | 0.162 ± 0.07
CTAAGCCA | -0.113 ± 0.031
AAAAAATT | -0.146 ± 0.14
AGTCCCAG | -0.177 ± 0.024
GGGCCGCA | -0.277 ± 0.082
CCGTTAAC | 0.122 ± 0.0013
CTCCTTGA | -0.226 ± 0.011

Sequence | PBM E-score of 8-mer
AGTTGGAC | -0.181 ± 0.0063
ACGAGTAT | -0.0506 ± 0.042
ACCAAGCT | 0.0259 ± 0.092
CATGTTGG | -0.109 ± 0.0048
GGCAATCA | -0.21 ± 0.0063
CACCAGGG | 0.0472 ± 0.096
AAACGGAA | -0.0365 ± 0.0041
GCGGAGGA | -0.0841 ± 0.0039
CCTATGGA | -0.166 ± 0.039
ACGCGTGG | 0.162 ± 0.071
CCAGACGC | -0.057 ± 0.12
CAACTAAC | 0.1498 ± 0.00054
CCTGGTGC | 0.244 ± 0.014
TGCCCAAA | -0.129 ± 0.032
AACCTAAC | 0.0221 ± 0.052
AAGGTGGG | 0.221 ± 0.026
GGCATTTA | 0.00349 ± 0.0029
CCAGATAA | -0.021 ± 0.033
ACCCTGCG | 0.2324 ± 0.00049
AAGTGCCT | -0.0671 ± 0.029
ATGTGTAC | -0.0302 ± 0.049
AGCACTAC | 0.022 ± 0.017
